Results as given in paper PMC4336329 (PLoS ONE, 2015).
In all, about 310,000 compounds went through this assay and about 14,000 (4.5%) showed an effect of 50% or more. The effect is printed as a negative number. The list shows a part of the results.

target: human ether-à-go-go-related gene (hERG) potassium channel (human, UniProt Q12809); assay: primary screen, population patch clamp on CHO cells stably expressing hERG
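Note: peak tail current of the secondary pulse compared with the same well before compound.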

Sequence of human ether-à-go-go-related gene (hERG) potassium channel (Q12809 whole entry, looked up): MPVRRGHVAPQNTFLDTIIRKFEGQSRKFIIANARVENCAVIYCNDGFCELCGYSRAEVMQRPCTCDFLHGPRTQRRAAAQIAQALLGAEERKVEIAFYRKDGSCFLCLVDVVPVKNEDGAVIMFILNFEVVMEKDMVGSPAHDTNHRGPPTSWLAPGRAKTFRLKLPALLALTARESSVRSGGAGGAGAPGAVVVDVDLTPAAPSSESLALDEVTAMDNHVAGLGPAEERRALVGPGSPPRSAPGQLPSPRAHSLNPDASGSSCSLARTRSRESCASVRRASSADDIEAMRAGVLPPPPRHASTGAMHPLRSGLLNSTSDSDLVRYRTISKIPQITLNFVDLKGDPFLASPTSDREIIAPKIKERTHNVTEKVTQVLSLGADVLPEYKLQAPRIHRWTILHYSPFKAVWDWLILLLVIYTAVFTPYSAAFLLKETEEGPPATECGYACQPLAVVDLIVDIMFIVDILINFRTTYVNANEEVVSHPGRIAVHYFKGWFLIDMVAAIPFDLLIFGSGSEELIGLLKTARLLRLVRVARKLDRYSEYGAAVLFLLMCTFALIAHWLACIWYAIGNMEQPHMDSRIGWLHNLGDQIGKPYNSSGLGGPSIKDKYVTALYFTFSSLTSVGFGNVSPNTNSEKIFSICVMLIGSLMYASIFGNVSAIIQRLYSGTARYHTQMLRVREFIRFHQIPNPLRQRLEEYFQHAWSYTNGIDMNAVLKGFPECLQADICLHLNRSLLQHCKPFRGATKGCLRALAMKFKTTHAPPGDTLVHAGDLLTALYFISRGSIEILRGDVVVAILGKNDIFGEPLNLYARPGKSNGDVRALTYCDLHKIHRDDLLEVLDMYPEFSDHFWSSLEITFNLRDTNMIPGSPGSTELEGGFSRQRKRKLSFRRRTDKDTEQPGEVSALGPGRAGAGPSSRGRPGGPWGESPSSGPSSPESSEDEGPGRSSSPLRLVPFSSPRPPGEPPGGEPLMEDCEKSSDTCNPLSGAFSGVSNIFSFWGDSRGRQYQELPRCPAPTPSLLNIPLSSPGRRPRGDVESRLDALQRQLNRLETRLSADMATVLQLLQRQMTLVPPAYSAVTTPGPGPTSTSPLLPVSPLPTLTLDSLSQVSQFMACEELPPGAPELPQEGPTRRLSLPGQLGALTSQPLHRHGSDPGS

Compound | hERG current change (%, negative = inhibition) at 10uM [%]
CCO[C@H]1OC(C(=O)NCc2nc3ccccc3[nH]2)=C[C@@H](c2csc3ccccc23)[C@@H]1CCCO | -12.2
COc1ccc(C(=O)NCc2nnc(SC)n2Cc2ccccc2)cc1 | 0.866
CCC(=O)Oc1ccc2oc(=O)cc(C)c2c1 | 5.91
O=C(c1cccc([N+](=O)[O-])c1)N1CCN(c2ccccn2)CC1 | -4.05
O=C(O)c1ccc(N2C(=O)c3cccc4c(C(=O)O)ccc(c34)C2=O)cc1 | 15
CC(C)c1nc(CNC(=O)CC2C(=O)NCCN2Cc2cccc(F)c2F)cs1 (stereo not drawn) | -5.55
Brc1ccc(-c2nn3c(-c4ccco4)nnc3s2)o1 | -29.2
CCOC(=O)C1CCN(C(=O)C2(NC(=O)Nc3ccccc3Cl)CCCCC2)CC1 | -8.52
COC(=O)[C@H]1[C@@H](C)N(CCc2cc(OC)c(OC)c(OC)c2)C(=O)N[C@H]1c1ccccc1 | -6.01
CCc1nnc(NS(=O)(=O)c2ccc(N)cc2)s1 | 10.6
O=C(Nc1ccc(F)cc1F)C1CCN(C(=O)c2ccc(Br)cc2)CC1 | -30.2
COc1ccccc1OCC(=O)Nn1c(=S)[nH]c2ncccc2c1=O | 19.1
COc1ccc(-c2nc3c(n2O)CCC/C3=N\O)cc1 | 7.98
Cc1cc(N=Cc2cc(Cl)ccc2O)no1 | -6.77
CN(CC(=O)Nc1ccccc1F)CC(=O)Nc1ccc(F)c(F)c1F | 17.1
N#Cc1cnn(Cc2ccccc2)c1/N=C/N1CCOCC1 | -11.3
Cc1cc(C)cc(N(CC(=O)N2CCN(Cc3ccccc3)CC2)S(=O)(=O)c2c(C)noc2C)c1 | 1.23
N#Cc1ccc(S(=O)(=O)N2CCCN(c3nc4ccc(Cl)cc4s3)CC2)cc1 | -70.3
CCn1cc(C(=O)NCC2CCCO2)c(=O)c2cc(S(=O)(=O)N3CCCCCC3)ccc21 (stereo not drawn) | -51.3

Compound | hERG current change (%, negative = inhibition) at 10uM [%]
O=C(COc1ccccc1)NCC(=O)N/N=C/c1ccc(Cl)cc1 | -7.97
COC(=O)c1ccccc1NC(=O)CSc1nc(Nc2ccccc2)nc(N2CCOCC2)n1 | 3.6
CNC(=O)CSc1nc2cccnc2n1C1CCCCC1 | 12
CCc1nc(C)cc2c1sc1ccccc12.Cl | 3.2
CC(C)CC(=O)N1CC(=O)Nc2ccc(F)cc2C1c1ccccc1 (stereo not drawn) | 0.0422
CC(C)c1nc2sc3c(=O)[nH]cnc3c2c2c1CCC2 | 4.7
CN(C)/C=C/c1oc2ccc(O)cc2c1[N+](=O)[O-] | 3.59
Nc1ccccc1Sc1ccc(C(F)(F)F)cc1[N+](=O)[O-] | -4.06
O=C(C1=C(O)C(=O)N(CCOCCO)C1c1cccs1)c1cccs1 (stereo not drawn) | 5.59
O=C(N/N=C/c1cn[nH]c1-c1ccc(Cl)cc1)c1ccc([N+](=O)[O-])cc1 | -51.5
CCN(CC)S(=O)(=O)c1ccc(-c2nnc(SCC(=O)Nc3cc(OC)cc(OC)c3)o2)cc1 | -15.6
COc1ccc(/C=C(/NC(=O)c2ccc(C)cc2)C(=O)NCc2ccncc2)cc1 | -66.2
Cc1c(Br)c([N+](=O)[O-])nn1CC(=O)NCc1cccnc1 | -11.3
CCC(=O)c1ccc(OCC(=O)NC2CCCC2)cc1 | 12
COc1ccc(Nc2cc(Cl)nc(N)n2)cc1OC | 11.9
Cc1nnc(NC(=O)CSc2nc(CC(C)C)nc3c2c(=O)n(C)c(=O)n3C)s1 | 1.56
O=C(OCC(=O)N1CCCc2ccccc21)c1c(F)cccc1F | 10.7
COc1cc(CC(=O)OCC(=O)NC2CCCC2)cc(OC)c1OC | 12.9
CCN1CCN(c2ccccc2NC(=O)c2ccc(-n3cccn3)cc2)CC1 | -16.1

Compound | hERG current change (%, negative = inhibition) at 10uM [%]
Cc1ccc(-n2c(C)nnc2SCC(=O)N2CCOCC2)cc1 | 21.9
COc1ccc(OCC(O)CNC(=O)Nc2cc(F)ccc2C)cc1 (stereo not drawn) | 6.46
COc1ccc(CN(C)C(=O)c2cccc(Oc3ccccc3)c2)c(OC)c1OC | -20.6
CCc1ccc(NC(=O)c2noc3c2CCCCC3)cc1 | 0.215
COc1ccc(-c2nc(C(=O)O)cs2)cc1OC | 2.6
O=C(NCc1ccc(Cl)cc1)C(=O)NCC(c1ccco1)N1CCOCC1 (stereo not drawn) | -15.9
CCOC(=O)N1CCN(C(=O)c2ccc(Cn3c(=S)[nH]c4cc(C(=O)OC)ccc4c3=O)cc2)CC1 | 15.3
COc1ccc(CCNC(=O)C2CCCN(S(=O)(=O)c3ccccc3)C2)cc1 (stereo not drawn) | -36.5
O=C(COC(=O)c1ccc2ncsc2c1)Nc1cc([N+](=O)[O-])ccc1Cl | 2.28
CC(=O)Nc1nonc1NC(=O)CSc1ccccn1 | 2.54
O=C1C(Cl)=C(Nc2ccc(O)cc2)C(=O)c2ccccc21 | 14.6
O=C(O)C(=O)O.O=C(c1ccccc1F)N1CCN(Cc2ccc3c(c2)OCO3)CC1 | 6.48
CCN1CNC(=S)N(c2ccccc2C)C1 | 9.86
CCCOC1CCCN(C(=O)CCc2nnc(Cc3cccc(C)c3)o2)C1 (stereo not drawn) | 4.16
OCc1ncccc1O | 20
Cc1ccc(NC(=S)N(CCCN2CCCC2)Cc2cccn2Cc2ccc(Cl)cc2)cc1 | -22.9
Cc1ccc(CNC(=O)c2cc3cc(Br)ccc3oc2=N)cc1 | -0.565
COc1ccc(OC)c(S(=O)(=O)NC2CCCCC2)c1 | -11.2
CCn1nnc(NC(=O)COc2cc(C)ccc2C(C)C)n1 | -1.97
